# Measurements from the supplement of paper PMC8728848.
# The other results are listed elsewhere or left out.
# B1: CSA (Cytisus scoparius), P29257 (protein)
# chain: SEELSFSFTKFKTDQKNLILQRDALITPTGKLQLTTVENGKPAAYSLGRALYSTPIHIWDKSTGDEASFATFFSFVISDAPNPSTAATDGLAFFLAPADTQPQSAGGYLGLFEKDSSYNSSNQIVAVEFDTYYNSAWDPQTNPHIGIDVNTIKSKKVSSWGFKNGNVATVLITYQPSSKSLVASLVYPSGQTSDKTSYIISANVDLKATVPEWVRIGFSATTGQTDNYIETHDILSWSFKSKLPATKN
# What was measured:
# Assay in all cases: glycan array binding signal (z-score within array); higher = stronger binding
# Details in all cases: glycan notation: IUPAC condensed, linker removed
# [1] = target: GlcNAc(b1-3)Gal(b1-4)GlcNAc(b1-3)Gal(b1-4)GlcNAc(b1-2)Man(a1-3)[GlcNAc(b1-3)Gal(b1-4)GlcNAc(b1-3)Gal(b1-4)GlcNAc(b1-2)Man(a1-6)]Man(b1-4)GlcNAc(b1-4)GlcNAc
# Summary of the method: (§1)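 Glycan array data were curated from 3228 arrays in the Consortium for Functional Glycomics database and kept only where the protein sequence was available. Glycan names were converted to IUPAC-condensed notation, and columns mapping to the same glycan were averaged. The binding signal is a within-array Z-score, averaged across arrays of the same protein sequence at different concentrations or buffers and across linkers. Negative Z-scores can be read as non-binding.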
# [2] = target: GlcNAc(b1-3)Gal(b1-4)GlcNAc(b1-3)Gal(b1-4)GlcNAc(b1-2)Man(a1-3)[GlcNAc(b1-3)Gal(b1-4)GlcNAc(b1-3)Gal(b1-4)GlcNAc(b1-2)Man(a1-6)]Man(b1-4)GlcNAc(b1-4)[Fuc(a1-6)]GlcNAc
# Summary of the method: as §1
# [3] = target: GlcNAc(b1-3)Gal(b1-4)GlcNAc(b1-3)Gal(b1-4)GlcNAc(b1-2)[GlcNAc(b1-3)Gal(b1-4)GlcNAc(b1-3)Gal(b1-4)GlcNAc(b1-6)]Man(a1-6)[GlcNAc(b1-3)Gal(b1-4)GlcNAc(b1-3)Gal(b1-4)GlcNAc(b1-2)Man(a1-3)]Man(b1-4)GlcNAc(b1-4)[Fuc(a1-6)]GlcNAc
# Summary of the method: as §1
# [4] = target: GlcNAc(b1-3)Gal(b1-4)GlcNAc(b1-3)Gal(b1-4)GlcNAc(b1-3)Gal(b1-4)GlcNAc(b1-2)Man(a1-3)[GlcNAc(b1-3)Gal(b1-4)GlcNAc(b1-3)Gal(b1-4)GlcNAc(b1-3)Gal(b1-4)GlcNAc(b1-2)Man(a1-6)]Man(b1-4)GlcNAc(b1-4)GlcNAc
# Summary of the method: as §1
# [5] = target: GlcNAc(b1-3)Gal(b1-4)GlcNAc(b1-3)Gal(b1-4)GlcNAc(b1-3)Gal(b1-4)GlcNAc(b1-2)Man(a1-3)[GlcNAc(b1-3)Gal(b1-4)GlcNAc(b1-3)Gal(b1-4)GlcNAc(b1-3)Gal(b1-4)GlcNAc(b1-2)Man(a1-6)]Man(b1-4)GlcNAc(b1-4)[Fuc(a1-6)]GlcNAc
# Summary of the method: as §1
# [6] = target: GlcNAc(b1-3)Gal(b1-4)GlcNAc(b1-3)Gal(b1-4)GlcNAc(b1-3)Gal(b1-4)GlcNAc(b1-2)[GlcNAc(b1-3)Gal(b1-4)GlcNAc(b1-3)Gal(b1-4)GlcNAc(b1-3)Gal(b1-4)GlcNAc(b1-6)]Man(a1-6)[GlcNAc(b1-3)Gal(b1-4)GlcNAc(b1-3)Gal(b1-4)GlcNAc(b1-3)Gal(b1-4)GlcNAc(b1-2)Man(a1-3)]Man(b1-4)GlcNAc(b1-4)[Fuc(a1-6)]GlcNAc
# Summary of the method: as §1
# [7] = target: GlcNAc(b1-3)Gal(b1-4)GlcNAc(b1-3)Gal(b1-4)GlcNAc(b1-3)Gal(b1-4)GlcNAc(b1-3)Gal(b1-4)GlcNAc(b1-2)Man(a1-3)[GlcNAc(b1-3)Gal(b1-4)GlcNAc(b1-3)Gal(b1-4)GlcNAc(b1-3)Gal(b1-4)GlcNAc(b1-3)Gal(b1-4)GlcNAc(b1-2)Man(a1-6)]Man(b1-4)GlcNAc(b1-4)GlcNAc
# Summary of the method: as §1
# [8] = target: GlcNAc(b1-3)Gal(b1-4)GlcNAc(b1-3)Gal(b1-4)GlcNAc(b1-3)Gal(b1-4)GlcNAc(b1-3)Gal(b1-4)GlcNAc(b1-2)Man(a1-3)[GlcNAc(b1-3)Gal(b1-4)GlcNAc(b1-3)Gal(b1-4)GlcNAc(b1-3)Gal(b1-4)GlcNAc(b1-3)Gal(b1-4)GlcNAc(b1-2)Man(a1-6)]Man(b1-4)GlcNAc(b1-4)[Fuc(a1-6)]GlcNAc
# Summary of the method: as §1
# [9] = target: GlcNAc(b1-3)Gal(b1-4)GlcNAc(b1-3)Gal(b1-4)GlcNAc(b1-3)Gal(b1-4)GlcNAc(b1-3)Gal(b1-4)GlcNAc(b1-2)[GlcNAc(b1-3)Gal(b1-4)GlcNAc(b1-3)Gal(b1-4)GlcNAc(b1-3)Gal(b1-4)GlcNAc(b1-3)Gal(b1-4)GlcNAc(b1-6)]Man(a1-6)[GlcNAc(b1-3)Gal(b1-4)GlcNAc(b1-3)Gal(b1-4)GlcNAc(b1-3)Gal(b1-4)GlcNAc(b1-3)Gal(b1-4)GlcNAc(b1-2)Man(a1-3)]Man(b1-4)GlcNAc(b1-4)[Fuc(a1-6)]GlcNAc
# Summary of the method: as §1
# [10] = target: GlcNAc(b1-3)Gal(b1-4)GlcNAc(b1-3)Gal(b1-4)GlcNAc(b1-3)GalNAc
# Summary of the method: as §1
# [11] = target: GlcNAc(b1-3)Gal(b1-4)GlcNAc(b1-3)GalNAc
# Summary of the method: as §1
# [12] = target: GlcNAc(b1-3)Gal(b1-4)GlcNAc(b1-3)[GlcNAc(b1-3)Gal(b1-4)GlcNAc(b1-3)]GalNAc
# Summary of the method: as §1
# [13] = target: GlcNAc(b1-3)Gal(b1-4)GlcNAc(b1-6)[Gal(b1-3)]GalNAc
# Summary of the method: as §1
# [14] = target: GlcNAc(b1-3)Gal(b1-4)GlcNAc(b1-6)[GlcNAc(b1-3)Gal(b1-3)]GalNAc
# Summary of the method: as §1
# [15] = target: GlcNAc(b1-3)Gal(b1-4)GlcNAc(b1-6)[GlcNAc(b1-3)]Gal(b1-4)GlcNAc
# Summary of the method: as §1
# [16] = target: GlcNAc(b1-3)GalNAc
# Summary of the method: as §1
# [17] = target: GlcNAc(b1-3)Man
# Summary of the method: as §1
# [18] = target: GlcNAc(b1-3)[GlcNAc(b1-4)][GlcNAc(b1-6)]GlcNAc
# Summary of the method: as §1
# [19] = target: GlcNAc(b1-3)[GlcNAc(b1-6)]Gal(b1-4)GlcNAc
# Summary of the method: as §1
# [20] = target: GlcNAc(b1-3)[GlcNAc(b1-6)]GalNAc
# Summary of the method: as §1
# [21] = target: GlcNAc(b1-3)[GlcNAc(b1-6)]GlcNAc(b1-4)GlcNAc
# Summary of the method: as §1
# [22] = target: GlcNAc(b1-4)Gal(b1-4)GlcNAc
# Summary of the method: as §1
# [23] = target: GlcNAc(b1-4)GlcNAc
# Summary of the method: as §1
# [24] = target: GlcNAc(b1-4)GlcNAc(b1-4)GlcNAc
# Summary of the method: as §1
# [25] = target: GlcNAc(b1-4)GlcNAc(b1-4)GlcNAc(b1-4)GlcNAc(b1-4)GlcNAc
# Summary of the method: as §1
# [26] = target: GlcNAc(b1-4)GlcNAc(b1-4)GlcNAc(b1-4)GlcNAc(b1-4)GlcNAc(b1-4)GlcNAc
# Summary of the method: as §1
# [27] = target: GlcNAc(b1-4)[GlcNAc(b1-6)]GalNAc
# Summary of the method: as §1
# [28] = target: GlcNAc(b1-6)Gal(b1-4)GlcNAc
# Summary of the method: as §1
# [29] = target: GlcNAc(b1-6)GalNAc
# Summary of the method: as §1
# [30] = target: GlcNAc6S(b1-3)Gal(b1-4)GlcNAc
# Summary of the method: as §1
# [31] = target: Kdn(a2-3)Gal(b1-3)GalNAc
# Summary of the method: as §1
# [32] = target: Kdn(a2-3)Gal(b1-3)GlcNAc
# Summary of the method: as §1
# [33] = target: Kdn(a2-3)Gal(b1-4)Glc
# Summary of the method: as §1
# [34] = target: Kdn(a2-3)Gal(b1-4)GlcNAc
# Summary of the method: as §1
# [35] = target: Kdn(a2-3)Gal(b1-4)[Fuc(a1-3)]GlcNAc
# Summary of the method: as §1
# [36] = target: Kdn(a2-6)Gal(b1-4)GlcNAc
# Summary of the method: as §1
# [37] = target: Man(a1-2)Man(a1-2)Man(a1-3)Man
# Summary of the method: as §1
# [38] = target: Man(a1-2)Man(a1-2)Man(a1-6)[Man(a1-3)]Man
# Summary of the method: as §1
# [39] = target: Man(a1-2)Man(a1-3)Man
# Summary of the method: as §1
# [40] = target: Man(a1-2)Man(a1-3)[Man(a1-2)Man(a1-6)]Man
# Summary of the method: as §1
# [41] = target: Man(a1-2)Man(a1-3)[Man(a1-2)Man(a1-6)]Man(a1-6)[Man(a1-2)Man(a1-2)Man(a1-3)]Man
# Summary of the method: as §1
# [42] = target: Man(a1-2)Man(a1-3)[Man(a1-2)Man(a1-6)]Man(a1-6)[Man(a1-2)Man(a1-2)Man(a1-3)]Man(b1-4)GlcNAc(b1-4)GlcNAc
# Summary of the method: as §1
# [43] = target: Man(a1-2)Man(a1-3)[Man(a1-2)Man(a1-6)]Man(a1-6)[Man(a1-3)[Man(a1-6)]Man(a1-6)]Man(b1-4)GlcNAc(b1-4)GlcNAc
# Summary of the method: as §1
# [44] = target: Man(a1-2)Man(a1-3)[Man(a1-6)]Man(a1-6)[Man(a1-2)Man(a1-3)]Man(b1-4)GlcNAc(b1-4)GlcNAc
# Summary of the method: as §1
# [45] = target: Man(a1-2)Man(a1-6)[Man(a1-3)]Man(a1-6)[Man(a1-2)Man(a1-2)Man(a1-3)]Man
# Summary of the method: as §1
binder,measurement,setting,value
B1,glycan array binding signal (z-score),[1],0.145
same,glycan array binding signal (z-score),[2],-0.191
same,glycan array binding signal (z-score),[3],-0.13
same,glycan array binding signal (z-score),[4],-0.141
same,glycan array binding signal (z-score),[5],0.013
same,glycan array binding signal (z-score),[6],-0.212
same,glycan array binding signal (z-score),[7],-0.144
same,glycan array binding signal (z-score),[8],-0.14
same,glycan array binding signal (z-score),[9],-0.168
same,glycan array binding signal (z-score),[10],-0.141
same,glycan array binding signal (z-score),[11],-0.288
same,glycan array binding signal (z-score),[12],-0.212
same,glycan array binding signal (z-score),[13],-0.205
same,glycan array binding signal (z-score),[14],-0.218
same,glycan array binding signal (z-score),[15],-0.248
same,glycan array binding signal (z-score),[16],-0.217
same,glycan array binding signal (z-score),[17],-0.189
same,glycan array binding signal (z-score),[18],-0.198
same,glycan array binding signal (z-score),[19],-0.218
same,glycan array binding signal (z-score),[20],-0.159
same,glycan array binding signal (z-score),[21],-0.189
same,glycan array binding signal (z-score),[22],-0.213
same,glycan array binding signal (z-score),[23],-0.148
same,glycan array binding signal (z-score),[24],-0.198
same,glycan array binding signal (z-score),[25],-0.22
same,glycan array binding signal (z-score),[26],-0.173
same,glycan array binding signal (z-score),[27],-0.198
same,glycan array binding signal (z-score),[28],-0.221
same,glycan array binding signal (z-score),[29],-0.118
same,glycan array binding signal (z-score),[30],-0.128
same,glycan array binding signal (z-score),[31],-0.123
same,glycan array binding signal (z-score),[32],-0.19
same,glycan array binding signal (z-score),[33],-0.11
same,glycan array binding signal (z-score),[34],-0.145
same,glycan array binding signal (z-score),[35],-0.135
same,glycan array binding signal (z-score),[36],-0.107
same,glycan array binding signal (z-score),[37],-0.228
same,glycan array binding signal (z-score),[38],-0.088
same,glycan array binding signal (z-score),[39],-0.188
same,glycan array binding signal (z-score),[40],-0.234
same,glycan array binding signal (z-score),[41],-0.17
same,glycan array binding signal (z-score),[42],-0.095
same,glycan array binding signal (z-score),[43],-0.183
same,glycan array binding signal (z-score),[44],-0.134
same,glycan array binding signal (z-score),[45],-0.179
